Experimental data as given in PMC4336329 (PLoS ONE, 2015).
Hit rate of the full screen: of about 310,000 compounds, about 14,000 (4.5%) showed an effect of 50% or more. The effect is printed as a negative number. Some of the results follow.

The compounds below were run against human ether-à-go-go-related gene (hERG) potassium channel (human, UniProt Q12809) (assay: primary screen, population patch clamp on CHO cells stably expressing hERG).
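Note: peak tail current of the secondary pulse compared with the same well before compound.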

Chain of human ether-à-go-go-related gene (hERG) potassium channel (Q12809 whole entry, looked up): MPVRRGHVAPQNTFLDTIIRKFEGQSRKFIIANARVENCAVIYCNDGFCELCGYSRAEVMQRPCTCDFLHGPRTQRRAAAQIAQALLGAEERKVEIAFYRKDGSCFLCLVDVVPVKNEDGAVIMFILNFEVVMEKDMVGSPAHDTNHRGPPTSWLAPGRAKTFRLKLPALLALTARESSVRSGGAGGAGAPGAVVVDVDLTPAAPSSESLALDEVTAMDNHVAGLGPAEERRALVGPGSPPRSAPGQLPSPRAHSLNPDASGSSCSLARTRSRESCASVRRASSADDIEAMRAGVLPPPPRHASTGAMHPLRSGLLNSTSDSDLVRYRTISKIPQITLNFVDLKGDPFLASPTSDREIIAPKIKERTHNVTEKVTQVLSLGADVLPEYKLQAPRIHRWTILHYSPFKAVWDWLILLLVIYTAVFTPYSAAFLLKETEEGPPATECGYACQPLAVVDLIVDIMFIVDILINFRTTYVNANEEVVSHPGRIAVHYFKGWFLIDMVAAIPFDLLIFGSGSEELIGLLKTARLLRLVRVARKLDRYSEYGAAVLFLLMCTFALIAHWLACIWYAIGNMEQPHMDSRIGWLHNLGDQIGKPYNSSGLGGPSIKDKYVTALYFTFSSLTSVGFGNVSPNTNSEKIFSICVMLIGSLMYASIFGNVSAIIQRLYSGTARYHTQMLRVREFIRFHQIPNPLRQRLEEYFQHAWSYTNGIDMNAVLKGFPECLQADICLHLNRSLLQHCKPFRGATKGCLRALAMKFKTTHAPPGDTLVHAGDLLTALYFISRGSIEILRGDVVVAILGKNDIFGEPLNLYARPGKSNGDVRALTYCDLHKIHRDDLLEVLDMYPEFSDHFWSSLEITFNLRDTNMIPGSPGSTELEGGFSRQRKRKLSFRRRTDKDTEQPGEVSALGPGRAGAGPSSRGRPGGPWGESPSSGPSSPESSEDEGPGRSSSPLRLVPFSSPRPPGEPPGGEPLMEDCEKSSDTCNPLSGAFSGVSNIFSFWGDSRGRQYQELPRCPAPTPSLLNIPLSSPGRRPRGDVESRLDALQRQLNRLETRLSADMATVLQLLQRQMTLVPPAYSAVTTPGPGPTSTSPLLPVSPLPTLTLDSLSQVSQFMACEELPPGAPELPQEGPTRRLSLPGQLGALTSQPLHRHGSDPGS

| Structure (SMILES) | hERG current change (%, negative = inhibition) at 10uM [%] |
| --- | --- |
| CCC(C(=O)N1CCc2ccccc2C1)n1nc(C)n2c(cc3occc32)c1=O (stereo not drawn) | -18.9 |
| COc1cc(OC)cc(-c2c(-c3cccs3)c3cc(-c4ccc(OC)c(OC)c4)ccc3n2C)c1 | 14.6 |
| CC(=O)N1CCN(c2ccccc2NC(=O)c2cccc3c(Cl)cccc23)CC1 | -19.2 |
| Cc1nonc1OCCn1nnnc1N | 21.7 |
| O=C(NCC(c1ccco1)N1CCN(c2ccc(F)cc2)CC1)OCc1ccccc1 (stereo not drawn) | -23.4 |
| CSCc1ccc(C(=O)N2CCC(N3CCC(C(=O)NC(C)C)CC3)CC2)o1 | 5.19 |
| C=CCSc1nnc(NC(=O)C2CSC3(C)CCC(=O)N23)s1 (stereo not drawn) | -6.07 |
| CCOC(=O)N1CCN(C(=O)COc2ccc(S(=O)(=O)NC(C)C)cc2)CC1 | 5.43 |
| CC(C)Nc1nc(NC(C)C)nc(N(C)C(N)=O)n1 | -12.1 |
| CC1=NNC(=O)C1CC(=O)N/N=C/C=C/c1ccccc1 (stereo not drawn) | 31.1 |
| Cc1ccccc1C1C(C#N)=C2N=C(N)c3c(sc4c3CCCCC4)N2C2=C1C(=O)CC(C)(C)C2 (stereo not drawn) | 15.4 |
| Cc1cc(C)nc(-n2ncc3c2CC(c2ccc(F)cc2)CC3=O)n1 (stereo not drawn) | 1.62 |
| Cc1ccc(C)n1NC(=O)c1ccccc1[N+](=O)[O-] | 11.9 |
| CCOC(=O)c1ccc(NC(=O)CCSCCc2ccccn2)cc1 | 0.702 |
| CCOc1ccc(NS(=O)(=O)c2ccc(NC(=O)c3ccccc3C(=O)O)cc2)cc1 | 4.91 |
| COc1ccc(C(=O)NC2CCN(C(=S)Nc3ccc(C)cc3)CC2)cc1 | -1.18 |
| CCc1ccc(N(CC)C(=O)c2cn(C)c(=O)c3ccccc23)cc1 | -5.57 |
| CC(C)OC(=O)C1C2C=CC3(CN(C(C)c4ccc(Br)cc4)C(=O)C13)O2 (stereo not drawn) | -7.04 |
| Cl.O=C(NCCN1CCCC1)C1COc2ccccc2O1 (stereo not drawn) | 19.4 |
| O=C(c1cccc(-c2nnc(-c3ccccc3)o2)c1)N1CCCCCC1 | -24.9 |
| Cc1cccc(N2CCN(S(=O)(=O)c3c(C)[nH]c(C)c3C(=O)N3CCCC3)CC2C)c1 (stereo not drawn) | -19.2 |
| COc1cccc(C(=O)Nc2ccc3nc(N4CCN(c5ncccn5)CC4)cc(C)c3c2)c1OC | -11.8 |
| O=C(NNC(=O)c1ccc(Br)s1)c1cccc(S(=O)(=O)N2CCCC2)c1 | -18.7 |

| Structure (SMILES) | hERG current change (%, negative = inhibition) at 10uM [%] |
| --- | --- |
| N#C/C(=C\c1cccc(Oc2ccccc2)c1)C(=O)N1CCOCC1 | 4.68 |
| COC(=O)C1=CN(CC2CCCO2)C=C(C(=O)OC)C1c1cc(OC)c(OC)c(OC)c1 (stereo not drawn) | -11.8 |
| NC(=O)c1ncc(C(F)(F)F)cc1Cl | 31.8 |
| O=C(Nc1ccc(CN2CCOCC2)cc1)c1ccc(-c2ccc(Cl)cc2Cl)o1 | -7.54 |
| Cc1cc(NC(=O)CSC2=NS(=O)(=O)c3cc(F)ccc3N2)no1 | -2.34 |
| O=C(O)/C=C/C(=O)Nc1ccccc1-c1ccccc1 | 3.01 |
| CCOC(=O)Cn1nc(C)c(NC(=O)CCc2ccccc2)c1C | 9.5 |
| c1ccc(-n2cc(CN3CCC(N4CCOCC4)CC3)c(-c3ccc4c(c3)OCO4)n2)cc1 | -50.8 |
| COc1ccccc1N1CCN(C(=O)c2ccc3c(c2)NC(=O)C(CSCc2ccccc2C)N3)CC1 (stereo not drawn) | 20.2 |
| COc1ccccc1NC(=O)CN1CCN(Cc2ccccc2)CC1 | -67.6 |
| COc1ccc(OC)c(NC(=O)CCNS(=O)(=O)c2ccc3c(c2)oc(=O)n3C)c1 | -9.09 |
| COc1ccc(-n2nc(C(=O)NCC(=O)N3CCC(C)CC3)c3ccccc3c2=O)cc1Cl | 9.08 |
| Cn1c(SCC(=O)Nc2ccccc2)nnc1-c1ccc(NC(=O)CCc2ccccc2)cc1 | 4.53 |
| O=C(CN1C(=O)C2C3C=CC(C4CC34)C2C1=O)Nc1cccc2ncccc12 (stereo not drawn) | 0.881 |
| Cc1ccc(Nc2c(-c3cccnc3)nc3ccc(Br)cn23)cc1 | -23.7 |
| Cc1cccc(NC(=O)C[n+]2ccc(N(C)C)cc2)c1.[Cl-] | 14 |
| CC1(C)CC(=O)C=C(Nc2ccccc2O)C1 | 15.7 |
| CC1CC(C)CN(c2nc3c(c(=O)n(C)c(=O)n3C)n2CCSc2ncccn2)C1 (stereo not drawn) | -15.2 |
| O=C(CN1C(=O)CSC1=O)N1CCc2ccccc2C1 | 9.51 |
| COC(=O)c1cc(S(=O)(=O)N2CCN(c3ccc(F)cc3)CC2)c[nH]1 | 16.9 |
| COc1cccc(-n2c(SCC(N)=O)nnc2-c2ccncc2)c1 | 16 |
| O=C(Cn1c2ccc(F)cc2c2nc3n(c(=O)c21)CCS3)Nc1ccccc1C(F)(F)F | 15.6 |
